Substitutions are numbered along the chain they refer to. Some of the results follow.

T1: UNK ZnF1-3 (human, UniProt Q9C0B0 31-174)
T1 sequence: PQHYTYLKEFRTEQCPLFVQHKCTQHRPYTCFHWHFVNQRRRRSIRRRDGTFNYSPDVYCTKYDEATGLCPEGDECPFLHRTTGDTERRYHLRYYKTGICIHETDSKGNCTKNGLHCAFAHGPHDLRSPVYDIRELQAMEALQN

B1: chr9:14812383:14812384:-_ENSMUSG00000031934_ENSMUST00000164273|mus_mus|mus_mus_mus_hu_True|88_88 (ssRNA)
RNA: GGGAGUUCUACAGUCCGACGAUCAUAGCCCAGGUAGAUACACGCUAACAGUAUAACGAUGAGUGUCAGCAGGCGGCAGCUAAUGUACUUGAUGAUUAAAUUAUUAGAAUUUUUCUUUGUCUUCAAGUACUGCUCCACAAUUGGCAACAGAGGAUUGAGCAUCA
B2: chr2:220084271:220084272:-_ENSG00000198925_ENST00000396761|hu_mus|motif|central (ssRNA)
RNA: GGGAGUUCUACAGUCCGACGAUCGGAAGGGAGUGCAGGAAGGGUAGGAGCUGGAUCCCAGCAUGCAAUGUCGAAGCCCGGGGCGGGGGUGAGUCCAUUAUCCCUCCAUUCUCCUCUUGGUAAGUGAGGGAUACUGGGCAGAGCCAACAGAGGAUUGAGCAUCA
B3: chr4:25749455:25749456:-_ENSG00000091490_ENST00000264868|hu_hu|hu_hu_hu_mus_False|58_68 (ssRNA)
RNA: GGGAGUUCUACAGUCCGACGAUCGCACUAUGACCUCUAGAAAAAUCCACAGGGGGAAAAAAUGUAAACCAAUUUACAAAGCUAUUGCCUUCCCUGUGUGUGGAGUGUUUGUCUCAAGGCUCCUUCUAGCUGCUGGAUUUGGGACAACAGAGGAUUGAGCAUCA
B4: 184041735_184042078_2385_CDS_ENSG00000114867_ENST00000411531|human|control|control (ssRNA)
RNA: GGGAGUUCUACAGUCCGACGAUCGUCUUUCUCAAACUCCUUCUGACAUCGAUUCAACAACAGCUUUCGGAAGUUCACAGUCACUGUUGGCUUUUCCGUAGUGGGCACUUUCAGCGCCAUGAGGCAGCGGCACAUGUUGGCAUACAACAGAGGAUUGAGCAUCA
B5: chr2:207631934:207631935:+_ENSG00000118246_ENST00000403094|hu_mus|FALSE|FALSE (ssRNA)
RNA: GGGAGUUCUACAGUCCGACGAUCCUCUUGUCUUCAGAUAUCCUUUUGGCAAUUAUCCACAUUGCUAAGAAAUAGUUACUACCAGGAAAUGUAGGUGCUUUUGAAAAUGUGUCCAGCACAUCACUCAGAGAGUUACACUCCUGGCAACAGAGGAUUGAGCAUCA
B6: chr19:21355511:21355512:+_ENSMUSG00000024750_ENSMUST00000025659|mus_hu|FALSE|FALSE (ssRNA)
RNA: GGGAGUUCUACAGUCCGACGAUCCAUUUCUUCCUGCUUCCAAAGAAUAUGUUGUGAAAUUAAAGAGGGUGAAGUUUAACUAUGGUAGAAGUAGACUGCCAGUCCUUUUCUGGUGUACCAUUUUAAAAAAAUACAGGCACAUAACAACAGAGGAUUGAGCAUCA
B7: 79837943_79842774_1736_3pUTR_ENSG00000067715_ENST00000261205|human|control|control (ssRNA)
RNA: GGGAGUUCUACAGUCCGACGAUCCCCACAAAGACUUUGCCGAUGGCAUCGUUCUUGCCAAUCUUGUCAUAGUCCAAAACAGUUACCACCACCUGCACUUUCUGGAUUUGUUCAAAAGGUACUUCAAAGCUGAAUGACUCAUUGCAACAGAGGAUUGAGCAUCA
B8: chr7:151048522:151048523:+_ENSG00000013374_ENST00000566856|hu_mus|hu_hu_hu_mus_True|78_88 (ssRNA)
RNA: GGGAGUUCUACAGUCCGACGAUCCUGUUUCUUAUUUAUUACGAUCUUGAUAUAAUUUUCUUGAAGUCCGAAAGUUUCAGCUAUUUGACACCUCAGGUCUCUACCAGUGACAUGCAAGCGGGUCUCCAACAAGCUUUUCUUAUCCAACAGAGGAUUGAGCAUCA
B9: 180261287_180261494_1942_CDS_ENSMUSG00000039630_ENSMUST00000037748|mouse|control|control (ssRNA)
RNA: GGGAGUUCUACAGUCCGACGAUCCCUCUGCUUAUAGUCUUCAUCUUUUGGGCACACUACAACAGCUUUCCGCUGGAAGCCUGCAAACAGGCACAUUUUUCUUCUCUGGGCAGCAGCAGACACAUUUGUCUGAUCCAGAAUAAACAACAGAGGAUUGAGCAUCA
B10: chr14:67421766:67421767:-_ENSMUSG00000022048_ENSMUST00000022629|mus_hu|FALSE|FALSE (ssRNA)
RNA: GGGAGUUCUACAGUCCGACGAUCACAUUUUGCUUUAUUAGGCGUUCCAUGGUAAUAUAACACAGAGUUCUUAAGGAAUAAUAAACACGAGACUUGUUUUUUACCAUAAUUAUUUUGCCAUCAAGACAGUGGUUACAAAAAAAACAACAGAGGAUUGAGCAUCA
B11: chr2:70106199:70106200:+_ENSG00000087338_ENST00000282570|hu_hu|FALSE|FALSE (ssRNA)
RNA: GGGAGUUCUACAGUCCGACGAUCCGAUGUGAAUAUCAGUAGGGCCAUUAAAUUAAAGCUGGCCUAAAAAGUUUUCAAAGUGCUACUGUUUCCAACUGAUGAAAUCUUCAGUUUUCUGGAUUUUCUGGGUGACGAUUAUUUUCACAACAGAGGAUUGAGCAUCA
B12: chr7:151048522:151048523:+_ENSG00000013374_ENST00000566856|hu_mus|hu_hu_hu_mus_True|8_98 (ssRNA)
RNA: B8 RNA with U39G, G42A, C45U, A51G, G65A, C133U
B13: chr2:32641123:32641124:+_ENSG00000115760_ENST00000421745|hu_hu|motif|central (ssRNA)
RNA: GGGAGUUCUACAGUCCGACGAUCAGUGCCCUCCUUUUUGGGAGGCUCCACUUUGGCCAAAAUUUCAAAGUUUGAAAGAUCGGGUAUUUUUACAUAUCCUCCCUGAGUGGUUAUUACCAGGUGUCCAAGAGUAGAAAUGUCAGACAACAGAGGAUUGAGCAUCA
B14: chr1:220276048:220276049:+_ENSG00000067704_ENST00000302637|hu_hu|hu_hu_hu_mus_True|58_88 (ssRNA)
RNA: GGGAGUUCUACAGUCCGACGAUCGCAAAUUGCCUGGUUGGCGGGAAUCGUCCAAGGCUGGGUGGUCCAAACUAAAAUACUAACAGGGGAUGAGGCAUCUGUAAGAGACUCCAACUUCGGAGGAGGUCUCAGGAGGGGGAAUCUCAACAGAGGAUUGAGCAUCA
B15: chr2:136540380:136540381:+_ENSG00000144224_ENST00000272638|hu_hu|FALSE|FALSE (ssRNA)
RNA: GGGAGUUCUACAGUCCGACGAUCGGAAUUUCCAUUCCAAGUGUUGUUUUCAUCUUCACCAUCAUCUUGAGUCCUUAAUCUAUAAAUUUUCCCCUCCUUUUUAAAGUCGUCUCCACGUUUUUCCAGCACUCUUUUUCUCACUGGCAACAGAGGAUUGAGCAUCA
B16: chr1:39494447:39494448:+_ENSG00000168653_ENST00000372967|hu_mus|hu_hu_hu_mus_False|28_48 (ssRNA)
RNA: GGGAGUUCUACAGUCCGACGAUCGCACCGAGCGGCGUUCUUAUAGGGCUGUUCUGCGCUUAGGAACAUAAAGUGCCGGUCCAGGCUAAGGCCGAACUUUUUCUGUAUGUCCAAGAAAGGCAUGGCUCUGCAGUGCCCUUGUCACAACAGAGGAUUGAGCAUCA
B17: chr2:86371542:86371543:-_ENSG00000132305_ENST00000449247|hu_hu|motif|central (ssRNA)
RNA: GGGAGUUCUACAGUCCGACGAUCCCAGUCCUGUGCCACUCGUCUGGAUUCCCCCUUCAGCUGAUUGACAAACUUUGCUGCGGGCUCCAGAUCACCAUGCUCAAUGCAAUAGGAAGCAUAUGACAGUAAUUUAAAUGUGUUUAUCAACAGAGGAUUGAGCAUCA
B18: chr17:6074196:6074197:-_ENSMUSG00000015659_ENSMUST00000097432|mus_hu|FALSE|FALSE (ssRNA)
RNA: GGGAGUUCUACAGUCCGACGAUCACUUUAUUAUAUUUCUGAUAUCUCUCCAGUGUGUGCCACUUUUUGGUGGGGAAGUAGAGGUUCCUAUUCUUCUGCAACAGAUGACGCAAUAAGCAGCCAGGGACAUUCUGCCGGCAGGCGCAACAGAGGAUUGAGCAUCA
B19: 57138253_57140773_1063_3pUTR_ENSMUSG00000022752_ENSMUST00000166897|mouse|control|control (ssRNA)
RNA: GGGAGUUCUACAGUCCGACGAUCAUCUAUUUCCUUUGAACAUUCACUUAUGAUUUUGUCAUAGUUUUCUUCUUCCAUAUAUUGUUUAGCUUUCAAAUACCCAGAAUUUUCUUUCACUUCUAAAGCCUCUCCCUCCUUGUCUUUCAACAGAGGAUUGAGCAUCA
B20: chr1:244855233:244855234:+_ENSG00000121644_ENST00000302550|hu_mus|hu_hu_hu_mus_True|48_78 (ssRNA)
RNA: GGGAGUUCUACAGUCCGACGAUCCAUCAGAUGGUAGGCGUUGCCCUUAUACUCUUUUCCCAGUUCUUCUACAAUUUUCUCUAUAUCAUCUUCUAGGAAGUCCGUACUUCCUAGAACAACAGCUUCUUUAAAUUUAAAUGUUUCCAACAGAGGAUUGAGCAUCA
B21: chr7:75932113:75932114:+_ENSG00000106211_ENST00000248553|hu_hu|hu_hu_hu_mus_False|58_108 (ssRNA)
RNA: GGGAGUUCUACAGUCCGACGAUCCUGCGACCACUCCUCGGGCAACCGGGGCACCCCGAAAGCUUGAUCGAAGAGGCGGCUAUGCGGAGGGUACCAGUCCCGGAAUGGUUCCCAGCUCGGGCUCCGCAGCAGCGAGAAGGGCACCAACAGAGGAUUGAGCAUCA
B22: chr1:231488893:231488894:+_ENSG00000010072_ENST00000295050|hu_hu|FALSE|FALSE (ssRNA)
RNA: GGGAGUUCUACAGUCCGACGAUCAUUAACCAUUUUGCUCUGACUGGAUGAACUGCUGGAAUUCUGAGCUGUGGUUGUACUAUACUUUGGAUCAUUACCACUGCUUUUUAUUUGCUCUUUCUUGAUAAAAAAAUUGUCAAAAACCAACAGAGGAUUGAGCAUCA

The test addresses T1, UNK ZnF1-3. Put plainly: nsRBNS (natural sequence RNA bind-n-seq); RBNS binding buffer (assumed for nsRBNS): 25 mM Tris pH 7.5, 150 mM KCl, 3 mM MgCl2, 0.01% Triton X-100, 500 ug/ml BSA, 20 U/ml SUPERase-In, 4 C; UNK is unkempt and MSI1 is Musashi-1; names of the RNAs are library labels; protein concentration not given here; high values mean tight binding.
B1 displayed a binding signal of 1.57 enrichment R.

B2 yielded a binding signal of 1.06 enrichment R.

Molecule B3 came in with a binding signal of 1.23 enrichment R.

Regarding B4, the binding signal was 0.887 enrichment R.

With B5, the binding signal is 1.08 enrichment R.

B6 had a binding signal of 0.947 enrichment R.

For the molecule B7, the binding signal amounted to 0.964 enrichment R.

Turning to B8, the binding signal worked out at 0.914 enrichment R.

For B9, the binding signal was determined as 1.03 enrichment R.

B10 registered a binding signal of 0.959 enrichment R.

B11: the binding signal turned out to be 0.683 enrichment R.

Turning to B12, the binding signal came out at 0.725 enrichment R.

Take B13: the binding signal stood at 0.684 enrichment R.

Regarding B14, the binding signal was determined as 1.82 enrichment R.

In turn, B15 gave a binding signal of 0.476 enrichment R.

B16 showed a binding signal of 0.814 enrichment R.

With B17, the binding signal was 0.946 enrichment R.

B18 returned a binding signal of 1.14 enrichment R.

Molecule B19 showed a binding signal of 0.414 enrichment R.

With B20, the binding signal amounted to 1.29 enrichment R.

With B21, the binding signal came out at 1.11 enrichment R.

Molecule B22 came in with a binding signal of 0.775 enrichment R.

Source of the values: publication PMC12136788.
